# Reference: patent US12459974B2, “Bicyclic peptide ligands specific for Nectin-4” (priority 2018, dated 2025)
# Not every detail of the peptide structures is certain; ends, links or a residue may be inferred. *1 amine or outer side, *2 acyl side, *3 side chain or, on linkers, in order; H or OH if unused. Where a SMILES comes first, the peptide text is derived from it. Bridges are numbered along the chain shown (N, C = ends). [ ]: non-standard residue; d: D form. TATA = O=C(CC[*:1])N1CN(C(=O)CC[*:2])CN(C(=O)CC[*:3])C1; 1Nal = N[C@@H](Cc1cccc2ccccc12)C(=O)O; Hyp = O=C(O)[C@@H]1C[C@@H](O)CN1; hArg = N=C(N)NCCCC[C@H](N)C(=O)O; βAla = NCCC(=O)O; Sar = CNCC(=O)O
# Key:
# human Nectin-4 [1] = molecular target: T1, human Nectin-4 (Homo sapiens, UniProt Q96NY8); assay: Nectin-4 Biacore SPR binding assay; settings: read-out: Human SPR Kd; peptide ligands (Table 3)
# T1 sequence (Q96NY8 32-349): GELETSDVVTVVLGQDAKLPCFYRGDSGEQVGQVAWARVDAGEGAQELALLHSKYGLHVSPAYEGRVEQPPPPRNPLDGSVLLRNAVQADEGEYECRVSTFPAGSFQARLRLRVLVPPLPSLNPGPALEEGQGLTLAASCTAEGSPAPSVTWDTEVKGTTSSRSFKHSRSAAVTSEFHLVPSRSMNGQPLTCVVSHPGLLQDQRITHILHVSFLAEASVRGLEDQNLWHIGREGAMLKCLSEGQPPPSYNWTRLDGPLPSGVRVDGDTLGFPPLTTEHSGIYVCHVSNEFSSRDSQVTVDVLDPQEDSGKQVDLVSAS
# human Nectin-4 [2] = molecular target: T2, human Nectin-4 (Homo sapiens, UniProt Q96NY8); assay: Nectin-4 competition binding assay (fluorescence polarisation); settings: competition with fluorescent peptide SEQ ID NO: 217
# T2 sequence (Q96NY8 32-510): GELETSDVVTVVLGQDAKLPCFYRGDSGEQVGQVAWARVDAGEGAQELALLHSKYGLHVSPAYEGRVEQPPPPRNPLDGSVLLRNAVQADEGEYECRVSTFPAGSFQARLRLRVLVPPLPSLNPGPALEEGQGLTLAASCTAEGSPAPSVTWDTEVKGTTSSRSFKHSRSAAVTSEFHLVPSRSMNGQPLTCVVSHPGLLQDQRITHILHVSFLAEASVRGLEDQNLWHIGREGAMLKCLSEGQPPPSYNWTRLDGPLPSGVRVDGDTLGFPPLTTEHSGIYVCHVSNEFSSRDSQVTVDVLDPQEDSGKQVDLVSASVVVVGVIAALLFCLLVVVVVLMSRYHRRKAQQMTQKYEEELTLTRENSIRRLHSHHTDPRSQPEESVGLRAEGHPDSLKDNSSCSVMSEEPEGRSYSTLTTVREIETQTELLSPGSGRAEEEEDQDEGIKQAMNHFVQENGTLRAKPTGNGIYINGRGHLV
# Method in brief: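 Ki derived by cubic-equation fit of mP data, with tracer peptide concentration, its Kd and Nectin-4 level as fixed inputs. Competition set up by adding 2-fold peptide dilutions (≤5% DMSO), then Nectin-4, then fluorescent peptide; polarisation measured as for direct binding.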
compound,measurement,setting,value
"CC[C@H](C)[C@@H]1NC(=O)[C@@H]2CCCN2C(=O)[C@H](Cc2c[nH]c3ccccc23)NC(=O)[C@H](CO)NC(=O)[C@H](Cc2c[nH]c3ccccc23)NC(=O)[C@H](CC(N)=O)NC(=O)[C@H](CCCCNC(=N)N)NC(=O)[C@H](CCSC)NC(=O)[C@@H]2CSCCC(=O)N3CN(CN(C3)C(=O)CCSC[C@H](NC(=O)CN(C)C(=O)CN(C)C(=O)CN(C)C(=O)CN(C)C(=O)CN(C)C(=O)CCNC(C)=O)C(=O)N3CCC[C@H]3C(=O)N[C@@H](Cc3ccccc3)C(=O)N[C@H](C)C(=O)N2)C(=O)CCSC[C@@H](C(N)=O)NC(=O)[C@H](Cc2c[nH]c3ccccc23)NC1=O [BCY7559, Ac-[B-Ala][Sar5]-(SEQ ID NO: 77)] (Ac-[βAla][Sar][Sar][Sar][Sar][Sar]CPF[dA]CM[hArg]NWSWPIWC-NH2; linker 7-11-21 via TATA; C-terminus assumed)",Kd,human Nectin-4 [1],14.9 nM
same,Ki,human Nectin-4 [2],17 nM
"CC[C@H](C)[C@@H]1NC(=O)[C@@H]2CCCN2C(=O)[C@H]([C@@H](C)O)NC(=O)[C@H](CO)NC(=O)[C@H](Cc2c[nH]c3ccccc23)NC(=O)[C@H](CC(N)=O)NC(=O)[C@H](CCCCNC(=N)N)NC(=O)[C@H](CCSC)NC(=O)[C@@H]2CSCCC(=O)N3CN(CN(C3)C(=O)CCSC[C@H](N)C(=O)N3CCC[C@H]3C(=O)N[C@@H](Cc3ccccc3)C(=O)N[C@H](CC(=O)O)C(=O)N2)C(=O)CCSC[C@@H](C(N)=O)NC(=O)[C@H](Cc2c[nH]c3ccccc23)NC1=O [BCY7793, (SEQ ID NO: 115)]",Kd,human Nectin-4 [1],47 nM
same,Ki,human Nectin-4 [2],42 nM
"CC[C@H](C)[C@@H]1NC(=O)[C@@H]2CCCN2C(=O)[C@H]([C@@H](C)O)NC(=O)[C@H](CO)NC(=O)[C@H](Cc2c[nH]c3ccccc23)NC(=O)[C@H](CC(N)=O)NC(=O)[C@H](CCCCNC(=N)N)NC(=O)[C@H](CCSC)NC(=O)[C@@H]2CSCCC(=O)N3CN(CN(C3)C(=O)CCSC[C@H](NC(C)=O)C(=O)N3CCC[C@H]3C(=O)N[C@@H](Cc3cccc4ccccc34)C(=O)N[C@H](CC(=O)O)C(=O)N2)C(=O)CCSC[C@@H](C(N)=O)NC(=O)[C@H](Cc2c[nH]c3ccccc23)NC1=O [BCY8030, Ac-(SEQ ID NO: 155)]",Kd,human Nectin-4 [1],1.71 nM
same,Ki,human Nectin-4 [2],2.5 nM
"CSCC[C@@H]1NC(=O)[C@@H]2CSCCC(=O)N3CN(CN(C3)C(=O)CCSC[C@H](NC(=O)CN(C)C(=O)CN(C)C(=O)CN(C)C(=O)CN(C)C(=O)CN(C)C(=O)CCNC(C)=O)C(=O)N3CCC[C@H]3C(=O)N[C@@H](Cc3cccc4ccccc34)C(=O)N[C@H](CC(=O)O)C(=O)N2)C(=O)CCSC[C@@H](C(N)=O)NC(=O)[C@H](Cc2c[nH]c3ccccc23)NC(=O)[C@@H]2C[C@@H](O)CN2C(=O)[C@@H]2CCCN2C(=O)[C@H]([C@@H](C)O)NC(=O)[C@H](CO)NC(=O)[C@H](Cc2c[nH]c3ccccc23)NC(=O)[C@H](CC(N)=O)NC(=O)[C@H](CCCCNC(=N)N)NC1=O [BCY8120, Ac-[B-Ala][Sar5]-(SEQ ID NO: 167)] (Ac-[βAla][Sar][Sar][Sar][Sar][Sar]CP[1Nal][dD]CM[hArg]NWSTP[Hyp]WC-NH2; linker 7-11-21 via TATA; C-terminus assumed)",Kd,human Nectin-4 [1],0.67 nM
same,Ki,human Nectin-4 [2],3 nM
"CSCC[C@@H]1NC(=O)[C@@H]2CSCCC(=O)N3CN(CN(C3)C(=O)CCSC[C@H](NC(=O)CN(C)C(=O)CN(C)C(=O)CN(C)C(=O)CN(C)C(=O)CN(C)C(=O)CCNC(C)=O)C(=O)N3CCC[C@H]3C(=O)N[C@@H](Cc3cccc4ccccc34)C(=O)N[C@H](CC(=O)O)C(=O)N2)C(=O)CCSC[C@@H](C(N)=O)NC(=O)[C@H](Cc2c[nH]c3ccccc23)NC(=O)[C@@H]2C[C@@H](O)CN2C(=O)[C@@H]2CCCN2C(=O)[C@H]([C@@H](C)O)NC(=O)[C@H](CO)NC(=O)[C@H](Cc2c[nH]c3ccccc23)NC(=O)[C@H](Cc2c[nH]cn2)NC(=O)[C@H](CCCCNC(=N)N)NC1=O [BCY8121, Ac-[B-Ala][Sar5]-(SEQ ID NO: 168)] (Ac-[βAla][Sar][Sar][Sar][Sar][Sar]CP[1Nal][dD]CM[hArg]HWSTP[Hyp]WC-NH2; linker 7-11-21 via TATA; C-terminus assumed)",Kd,human Nectin-4 [1],0.53 nM
same,Ki,human Nectin-4 [2],4 nM
"CSCC[C@@H]1NC(=O)[C@@H]2CSCCC(=O)N3CN(CN(C3)C(=O)CCSC[C@H](NC(=O)CN(C)C(=O)CN(C)C(=O)CN(C)C(=O)CN(C)C(=O)CN(C)C(=O)CCNC(C)=O)C(=O)N3CCC[C@H]3C(=O)N[C@@H](Cc3cccc4ccccc34)C(=O)N[C@H](CC(=O)O)C(=O)N2)C(=O)CCSC[C@@H](C(N)=O)NC(=O)[C@H](Cc2c[nH]c3ccccc23)NC(=O)[C@@H]2C[C@@H](O)CN2C(=O)[C@@H]2CCCN2C(=O)[C@H]([C@@H](C)O)NC(=O)[C@H](CO)NC(=O)[C@H](Cc2c[nH]c3ccccc23)NC(=O)[C@H](CC(=O)O)NC(=O)[C@H](CCCCNC(=N)N)NC1=O [BCY8122, Ac-[B-Ala][Sar5]-(SEQ ID NO: 169)]",Kd,human Nectin-4 [1],0.89 nM
same,Ki,human Nectin-4 [2],3 nM
"CC[C@H](C)[C@@H]1NC(=O)[C@@H]2CCCN2C(=O)[C@H]([C@@H](C)O)NC(=O)[C@H](CO)NC(=O)[C@H](Cc2c[nH]c3ccccc23)NC(=O)[C@H](CC(=O)O)NC(=O)[C@H](CCCCNC(=N)N)NC(=O)[C@H](CCSC)NC(=O)[C@@H]2CSCCC(=O)N3CN(CN(C3)C(=O)CCSC[C@H](NC(=O)CN(C)C(=O)CN(C)C(=O)CN(C)C(=O)CN(C)C(=O)CN(C)C(=O)CCNC(C)=O)C(=O)N3CCC[C@H]3C(=O)N[C@@H](Cc3cccc4ccccc34)C(=O)N[C@H](CC(=O)O)C(=O)N2)C(=O)CCSC[C@@H](C(N)=O)NC(=O)[C@H](Cc2c[nH]c3ccccc23)NC1=O [BCY8123, Ac-[B-Ala][Sar5]-(SEQ ID NO: 170)] (Ac-[βAla][Sar][Sar][Sar][Sar][Sar]CP[1Nal][dD]CM[hArg]DWSTPIWC-NH2; linker 7-11-21 via TATA; C-terminus assumed)",Kd,human Nectin-4 [1],2.66 nM
same,Ki,human Nectin-4 [2],4.5 nM
"CSCC[C@@H]1NC(=O)[C@@H]2CSCCC(=O)N3CN(CN(C3)C(=O)CCSC[C@H](NC(C)=O)C(=O)N3CCC[C@H]3C(=O)N[C@@H](Cc3cccc4ccccc34)C(=O)N[C@H](CC(=O)O)C(=O)N2)C(=O)CCSC[C@@H](C(N)=O)NC(=O)[C@H](Cc2c[nH]c3ccccc23)NC(=O)[C@@H]2C[C@@H](O)CN2C(=O)[C@@H]2CCCN2C(=O)[C@H]([C@@H](C)O)NC(=O)[C@H](CO)NC(=O)[C@H](Cc2c[nH]c3ccccc23)NC(=O)[C@H](CC(N)=O)NC(=O)[C@H](CCCCNC(=N)N)NC1=O [BCY8124, Ac-(SEQ ID NO: 167)] (Ac-CP[1Nal][dD]CM[hArg]NWSTP[Hyp]WC-NH2; linker 1-5-15 via TATA; C-terminus assumed)",Kd,human Nectin-4 [1],0.69 nM
same,Ki,human Nectin-4 [2],3.5 nM
"CSCC[C@@H]1NC(=O)[C@@H]2CSCCC(=O)N3CN(CN(C3)C(=O)CCSC[C@H](NC(C)=O)C(=O)N3CCC[C@H]3C(=O)N[C@@H](Cc3cccc4ccccc34)C(=O)N[C@H](CC(=O)O)C(=O)N2)C(=O)CCSC[C@@H](C(N)=O)NC(=O)[C@H](Cc2c[nH]c3ccccc23)NC(=O)[C@@H]2C[C@@H](O)CN2C(=O)[C@@H]2CCCN2C(=O)[C@H]([C@@H](C)O)NC(=O)[C@H](CO)NC(=O)[C@H](Cc2c[nH]c3ccccc23)NC(=O)[C@H](Cc2c[nH]cn2)NC(=O)[C@H](CCCCNC(=N)N)NC1=O [BCY8125, Ac-(SEQ ID NO: 168)] (Ac-CP[1Nal][dD]CM[hArg]HWSTP[Hyp]WC-NH2; linker 1-5-15 via TATA; C-terminus assumed)",Kd,human Nectin-4 [1],0.52 nM
same,Ki,human Nectin-4 [2],3.1 nM
"CSCC[C@@H]1NC(=O)[C@@H]2CSCCC(=O)N3CN(CN(C3)C(=O)CCSC[C@H](NC(C)=O)C(=O)N3CCC[C@H]3C(=O)N[C@@H](Cc3cccc4ccccc34)C(=O)N[C@H](CC(=O)O)C(=O)N2)C(=O)CCSC[C@@H](C(N)=O)NC(=O)[C@H](Cc2c[nH]c3ccccc23)NC(=O)[C@@H]2C[C@@H](O)CN2C(=O)[C@@H]2CCCN2C(=O)[C@H]([C@@H](C)O)NC(=O)[C@H](CO)NC(=O)[C@H](Cc2c[nH]c3ccccc23)NC(=O)[C@H](CC(=O)O)NC(=O)[C@H](CCCCNC(=N)N)NC1=O [BCY8126, Ac-(SEQ ID NO: 169)]",Kd,human Nectin-4 [1],1.07 nM
same,Ki,human Nectin-4 [2],2.7 nM
"CC[C@H](C)[C@@H]1NC(=O)[C@@H]2CCCN2C(=O)[C@H]([C@@H](C)O)NC(=O)[C@H](CO)NC(=O)[C@H](Cc2c[nH]c3ccccc23)NC(=O)[C@H](CC(=O)O)NC(=O)[C@H](CCCCNC(=N)N)NC(=O)[C@H](CCSC)NC(=O)[C@@H]2CSCCC(=O)N3CN(CN(C3)C(=O)CCSC[C@H](NC(C)=O)C(=O)N3CCC[C@H]3C(=O)N[C@@H](Cc3cccc4ccccc34)C(=O)N[C@H](CC(=O)O)C(=O)N2)C(=O)CCSC[C@@H](C(N)=O)NC(=O)[C@H](Cc2c[nH]c3ccccc23)NC1=O [BCY8127, Ac-(SEQ ID NO: 170)] (Ac-CP[1Nal][dD]CM[hArg]DWSTPIWC-NH2; linker 1-5-15 via TATA; C-terminus assumed)",Kd,human Nectin-4 [1],1.84 nM
same,Ki,human Nectin-4 [2],2.4 nM
